# Among all 94,000 compounds or so, about 4,000 (4.3%) were called active. Inconclusive results, whose numbers are uncertain, are shown with a selection of clear calls. Calls come from the whole dose curve; as a rule, active = well fitted inhibition curve with a large enough effect; inconclusive = small, poorly fitted or top-dose-only effect; inactive = no such curve, though single readings can be large or run the other way. Potencies beside an inconclusive call are fits to weak or partial responses and may not hold up.
# Experiment: Cytotoxic Profiling in NIH 3T3 Cell Line of Diverse Libraries Using Quantitative High-Throughput Screening; note: nearly all actives have a fitted effect of over 55% in size
# Settings: NIH 3T3 viability, CellTiter-Glo ATP luminescence, 48-72 h; activity change, negative = cytotoxicity: at 96.7 µM (top of the series) unless noted; series mostly up to 96.7 µM
# Procedure, shortened: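 Viability of NIH 3T3 cells after 48 or 72 hr compound treatment at 37 °C was assessed by CellTiter-Glo, with luminescence imaged following a 10 min room-temperature step.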
# % is set by controls: 0 for no effect and ±100 for the full control effect; potency is the fitted concentration of half-maximal effect; tags give direction and shape of the fitted curve.
SMILES,Potency,"activity change, negative = cytotoxicity",outcome
O=C(CN1C(=O)NC(c2ccccc2Cl)C2=C1COC2=O)Nc1ccc(F)c(Cl)c1 (configuration not stated),"inconclusive: 44.7 µM [inhibitor, partial curve, poor fit]",–,–
CC[C@H]1CN(S(=O)(=O)c2ccc(OC)cc2)CC[C@H]1CC(=O)NCc1ccc(OC)cc1,"inconclusive: 39.8 µM [inhibitor, partial curve]",–,–
CC(=O)N1CCC(Oc2ccc(Cl)cc2C(=O)NCC(C)c2ccccc2)CC1 (configuration not stated),–,inactive: -23.5%,–
Cn1ncc2c(C(=O)NCc3ccccn3)cc(-c3cccnc3)nc21,"inconclusive: 44.7 µM [inhibitor, partial curve, poor fit]",–,–
Cc1ccc(NC(=O)NC[C@H]2O[C@@H](CC(=O)N3CCN(c4ccccc4)CC3)[C@H](O)[C@@H]2O)cc1,–,inactive: -18%,–
Fc1ccc(Cc2nc3nccc(-c4cccs4)n3n2)cc1,"inconclusive: 50.1 µM [inhibitor, partial curve, poor fit]",–,–
CC(C)c1nnsc1CN1CCn2nc(CCC(=O)N3CCCC3)cc2C1,"inconclusive: 89.1 µM [inhibitor, single point]",–,–
O=C(Nc1cccc(C(F)(F)F)c1)N[C@H]1CO[C@H]2[C@@H]1OC[C@@H]2Nc1nccc(C2CCCC2)n1,active: 79.4 µM,–,–
COc1ccccc1-c1[nH]nc2ncc(C(=O)NCC3CCOCC3)nc12,active: 39.8 µM,–,–
CS(=O)(=O)N1CCCCC1CCNc1nccc(-c2cccnc2)n1 (configuration not stated),–,inactive: -2.96%,–
CC1Oc2ccc(NC(=O)Cc3ccc(F)cc3)cc2CN(CC2CC2)C1=O (configuration not stated),"inconclusive: 44.7 µM [inhibitor, partial curve, poor fit]",–,–
CC(=O)N1CCN(CC[C@H]2CN(C(=O)c3ccnc(Cl)c3)CC[C@H]2CC(=O)O)CC1,–,inactive: 0.483%,–
CN(C)Cc1cc(C[C@@H]2C[C@H](NCc3ccc(F)cc3)C2(C)C)no1,"inconclusive: 89.1 µM [inhibitor, partial curve, poor fit]",–,–
Cc1nc2c(c(-c3ccc(O)cc3)n1)CN(Cc1cccc3ccccc13)CC2,"inconclusive: 50.1 µM [inhibitor, partial curve, poor fit]",–,–
CCC(Cn1ccnc1)NC(=O)c1cccc(NCc2ccc(F)cc2)c1 (configuration not stated),"inconclusive: 50.1 µM [inhibitor, partial curve, poor fit]",–,–
Cc1ccc(-c2cccc(COc3cnc4c(ccn4CC(=O)O)c3)c2)cc1,–,inactive: -21.6% [at 138 µM],–
Cn1ccc(Nc2ccc3nnc(-c4ccccn4)n3n2)n1,"inconclusive: 56.2 µM [inhibitor, partial curve, poor fit]",–,–
CCOC(=O)CCNC(=O)N1c2ccccc2CC1c1nc(C(C)C)no1 (configuration not stated),–,–,inactive
CSCC(=O)Nc1nn(-c2ccc(F)cc2)c2cccc(N3CCOCC3)c12,"inconclusive: 39.8 µM [inhibitor, full curve, poor fit]",–,–
O=C(C1CC(=O)N(c2n[nH]c3ccccc23)C1)N1CCc2c([nH]c3ccccc23)C1 (configuration not stated),–,inactive: -25.5%,–
COc1ccc(-c2noc([C@@H]3CCCN3C(=O)c3cccc(Cl)c3)n2)cc1,"inconclusive: 50.1 µM [inhibitor, partial curve, poor fit]",–,–

SMILES,Potency,"activity change, negative = cytotoxicity",outcome
c1ccc(CCCc2noc(-c3ccc(N4CCCNCC4)nc3)n2)cc1,"inconclusive: 22.4 µM [inhibitor, full curve, poor fit]",–,–
CN1CCOc2c(C(=O)NCCc3cnc[nH]3)cc(-c3cccc4[nH]ccc34)cc21,active: 89.1 µM,–,–
COc1ccc(C(=O)N2CCC3(CC2)OC(=O)N(CC2CC2)C3(C)c2cccnc2)cn1 (configuration not stated),"inconclusive: 56.2 µM [inhibitor, partial curve, poor fit]",–,–
Cc1noc(C)c1-c1cc2c(cc(C)n2C)c(-c2ccccc2)n1,active: 50.1 µM,–,–
CCCc1noc(-c2cn(C3CCN(C(=O)c4ccc(F)c(F)c4)CC3)nn2)n1,active: 12.6 µM,–,–
Cc1ccc(S(=O)(=O)N2CCCC(Cn3cnc4cccnc43)C2)c(C)c1 (configuration not stated),"inconclusive: 39.8 µM [inhibitor, partial curve]",–,–
O=C(NCCc1ccccn1)[C@@H]1C[C@@H](c2ccc(F)cc2)N(Cc2ccccc2)C1,"inconclusive: 100 µM [inhibitor, single point]",–,–
Cc1cc(C)cc(-c2ccc(CN3CCCC(NC(=O)c4ccccc4)C3)cc2)c1 (configuration not stated),active: 22.4 µM,–,–
Cc1cccc(NC(=O)C23CCC=C2N(C2CCCC2)C(=O)CC3)c1 (configuration not stated),–,inactive: -17.6%,–
CCOc1ccc(NC(=O)c2cc3c(s2)CN(C2CCCC2)C3)cc1,"inconclusive: 50.1 µM [inhibitor, partial curve, poor fit]",–,–
CN(C)c1ccc2ncc(Nc3ccccc3-c3ccccc3)n2n1,active: 28.2 µM,–,–
O=C(Nc1ccc(Cl)nc1)c1ccc2ccnn2c1,–,inactive: -25.3% [at 138 µM],–
COc1ccc(N2CC(c3noc(-c4cc(OC)c(OC)c(OC)c4)n3)CC2=O)cc1OC (configuration not stated),"inconclusive: 39.8 µM [inhibitor, partial curve]",–,–
Cc1ccc(NC(=O)C[C@H]2NC(=O)c3ccccc3NC2=O)c(Cl)c1,"inconclusive: 70.8 µM [inhibitor, single point]",–,–
COCCN[C@@H]1C[C@@H]2c3[nH]c4ccccc4c3C[C@@H](C(=O)OC)N2[C@H](c2ccccc2)C1,active: 31.6 µM,–,–
CC(C)Cn1c(=O)c(C(=O)Nc2cccc(Cl)c2)nc2cccnc21,–,inactive: -1.2%,–
COc1ccc(NC(=O)N[C@H]2CO[C@H]3[C@@H]2OC[C@@H]3n2nnnc2Oc2ccc(-n3cncn3)cc2)cc1,–,inactive: -5.14%,–
Cc1ccc(NC(=O)N2CCN(c3nnnn3-c3cccc(C(C)C)c3)CC2)cc1F,"inconclusive: 44.7 µM [inhibitor, partial curve, poor fit]",–,–
OCC1(CN2CCCC2)CCN(Cc2ccc3ccccc3c2)CC1,active: 39.8 µM,–,–
CCC(=O)N1CCN(c2nc3c(s2)CC(C(=O)NC2CCCCCC2)CC3)CC1 (configuration not stated),"inconclusive: 50.1 µM [inhibitor, partial curve, poor fit]",–,–
Cc1ccc(Cn2cc(-c3ccncc3)cc2C(=O)N2CCN(C)CC2)cc1,"inconclusive: 50.1 µM [inhibitor, partial curve, poor fit]",–,–
